Data as given in patent US20120219559A1 (Johns Hopkins, published 2012).

How the values were obtained:
[1] = target: T1, human B7-H2Ig fusion protein (human, UniProt O75144 19-258); assay: flow cytometry on 293T cells transfected with human CD28; B7-H2Ig at 10 µg/ml
T1 construct: Ig (Fc) part not given
T1 sequence: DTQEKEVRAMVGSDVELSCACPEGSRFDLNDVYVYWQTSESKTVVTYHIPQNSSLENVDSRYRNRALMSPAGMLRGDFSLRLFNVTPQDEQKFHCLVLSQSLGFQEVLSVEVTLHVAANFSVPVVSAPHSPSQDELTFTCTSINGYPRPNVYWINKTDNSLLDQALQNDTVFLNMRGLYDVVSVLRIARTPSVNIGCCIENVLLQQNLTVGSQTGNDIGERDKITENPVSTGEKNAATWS

[2] = target: T1, human B7-H2Ig fusion protein; assay: flow cytometry on 293T cells transfected with human CTLA-4; B7-H2Ig at 10 µg/ml
B7-DCIg = target: T2, B7-DCIg (Mus musculus, UniProt Q9WUL5); assay: CDS well image, 293T cells transfected with the mouse gene, stained with the mouse fusion protein
T2 construct: Ig fusion protein purchased from R&D systems; also called mouse B7-DCIg fusion protein
T2 sequence (fusion protein, looked up): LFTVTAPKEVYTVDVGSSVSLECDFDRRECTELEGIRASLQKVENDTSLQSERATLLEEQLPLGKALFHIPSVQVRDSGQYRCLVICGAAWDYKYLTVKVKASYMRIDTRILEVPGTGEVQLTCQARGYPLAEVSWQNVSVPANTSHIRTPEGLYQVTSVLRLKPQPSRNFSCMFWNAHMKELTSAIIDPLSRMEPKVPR

B7-H1Ig = target: T3, B7-H1Ig (Mus musculus, UniProt Q9EP73); assay: as above
T3 construct: Ig fusion protein purchased from R&D systems; also called mouse B7-H1Ig fusion protein

B7-H2Ig = target: T4, B7-H2Ig (Mus musculus, UniProt Q9JHJ8); assay: as above
T4 construct: Ig fusion protein purchased from R&D systems; also called mouse B7-H2Ig fusion protein
T4 sequence (fusion protein, looked up): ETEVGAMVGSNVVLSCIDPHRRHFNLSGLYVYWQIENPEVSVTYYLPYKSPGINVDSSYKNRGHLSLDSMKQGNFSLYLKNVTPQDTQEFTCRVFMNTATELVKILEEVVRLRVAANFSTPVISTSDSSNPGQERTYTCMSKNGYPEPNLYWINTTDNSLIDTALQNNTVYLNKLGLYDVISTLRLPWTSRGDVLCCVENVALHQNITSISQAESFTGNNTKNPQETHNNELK

B1: human CD28, full length, expressed on cells (CD28+293T cells) (receptor)
chain: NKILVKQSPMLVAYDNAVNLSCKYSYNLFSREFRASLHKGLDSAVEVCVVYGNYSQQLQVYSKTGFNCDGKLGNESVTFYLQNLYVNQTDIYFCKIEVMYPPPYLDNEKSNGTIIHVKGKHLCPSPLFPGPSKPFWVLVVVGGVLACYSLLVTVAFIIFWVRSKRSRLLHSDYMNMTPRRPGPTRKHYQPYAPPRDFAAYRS
notes: This id also stands for CD28 on purified human T cells in the functional rows; also called CD28+ cells
binding result [1]: binds

B2: human CTLA-4, full length, expressed on cells (CTLA-4+293T cells) (receptor)
chain: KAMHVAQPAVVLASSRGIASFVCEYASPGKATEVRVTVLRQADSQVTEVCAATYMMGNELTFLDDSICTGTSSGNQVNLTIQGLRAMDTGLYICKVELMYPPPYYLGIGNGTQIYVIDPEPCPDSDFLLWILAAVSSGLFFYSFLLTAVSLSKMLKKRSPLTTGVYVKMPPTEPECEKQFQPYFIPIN
binding result [2]: binds

B3: CTLA-4 (receptor)
membrane protein: not shown
binding result (B7-DCIg): no binding | binding result (B7-H1Ig): no binding | binding result (B7-H2Ig): no binding
